# Results reported in PubChem BioAssay AID1030 (National Center for Advancing Translational Sciences (NCATS), 2008).
# In all, about 220,000 compounds went through this assay and about 16,000 (7.3%) were called active. The shares of active, inactive and inconclusive entries below differ from those in the screen. The call rests on the fitted dose curve; in most records, active means well fitted inhibition curve with a large enough effect (not every such curve was filed as active); inconclusive means small, poorly fitted or top-dose-only effect, or another doubt; inactive means no such curve, though single readings can be large or run the other way. No potency is given beside an inconclusive call; the fits are too rough.
# Molecular target: Aldehyde dehydrogenase 1A1 (Homo sapiens) (UniProt P00352)
# Sequence of UniProt P00352 (P00352 whole entry, looked up): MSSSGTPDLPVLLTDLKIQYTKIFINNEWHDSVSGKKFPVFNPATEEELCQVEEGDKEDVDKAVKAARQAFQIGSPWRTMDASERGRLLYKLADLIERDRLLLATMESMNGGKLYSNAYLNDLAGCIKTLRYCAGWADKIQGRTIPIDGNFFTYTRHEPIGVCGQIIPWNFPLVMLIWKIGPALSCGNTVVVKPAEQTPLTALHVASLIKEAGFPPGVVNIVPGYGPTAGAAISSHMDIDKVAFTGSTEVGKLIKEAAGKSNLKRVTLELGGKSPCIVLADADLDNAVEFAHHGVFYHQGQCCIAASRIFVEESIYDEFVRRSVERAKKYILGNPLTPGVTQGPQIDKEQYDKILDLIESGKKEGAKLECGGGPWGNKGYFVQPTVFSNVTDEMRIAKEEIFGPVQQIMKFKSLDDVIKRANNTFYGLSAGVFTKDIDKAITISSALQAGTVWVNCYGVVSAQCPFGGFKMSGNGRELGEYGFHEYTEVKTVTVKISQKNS
# Assay: qHTS Assay for Inhibitors of Aldehyde Dehydrogenase 1 (ALDH1A1)
# Conditions: Purified ALDH1A1, NADH fluorescence, propionaldehyde substrate; series mostly up to 75.3 µM
# Potency means the concentration at half of the fitted maximal effect; tags describe the fitted curve by direction and shape.
row,SMILES,Potency
1,Cc1sc(NC(=O)Cc2ccc3c(c2)OCO3)nc1-c1ccc2c(c1)CCN2C(=O)c1ccc(F)cc1,"inconclusive [inhibitor, single point]"
2,Cc1cc(C)nc(-n2nc(C)cc2NC(=O)CN2CCCC(C)C2)n1 (centres undefined),"inconclusive [inhibitor, partial curve, poor fit]"
3,FC(F)(F)c1ccc(N2CCN(c3ncnc4c3nnn4Cc3ccccc3)CC2)nc1,"inconclusive [inhibitor, full curve]"
4,COC(=O)CCC(=O)OC1(C)C(=O)C2=CN(Cc3ccc(OC)cc3)C(c3ccc(OC)cc3)=CC2=C(Br)C1=O (centres undefined),active: 3.16 µM
5,Oc1ccc(C(=S)N2CCCCC2)cc1,active: 22.4 µM
6,O=[N+]([O-])c1ccc(O)c(/C=N/Nc2nc3ccccc3[nH]2)c1,"inconclusive [inhibitor, single point]"
7,CCC(CC)C(=O)Nc1nnc(-c2cccs2)s1,"inconclusive [inhibitor, single point]"
8,O=C(O)c1ccc(Cl)c(S(=O)(=O)Nc2ccccc2F)c1,inactive
9,O=c1[nH]cc(NCCNc2ncc(C(F)(F)F)cc2Cl)c(=O)[nH]1,inactive
10,CC(=O)c1cc(CN2CCN(CC=C(C)C)C(CCO)C2)cs1 (centres undefined),inactive
11,CCc1cccc(CC)c1NC(=O)c1cccc(NC(=O)c2ccccc2)c1,inactive
12,Cc1ccccc1-c1nnc(-c2ccc(Cl)cc2)o1,inactive
13,C=CCOn1c(=O)c(C)[n+]([O-])c2ccccc21,"inconclusive [inhibitor, single point]"
14,Cn1ncc(N=Cc2ccccc2)c1C(=O)Nc1cccc(Cl)c1,inactive
15,COc1ccc2ccccc2c1/C=N/NC(=O)CC1(C)OCCCO1,"inconclusive [inhibitor, single point]"
16,CCCCCCCCCCCNC(=O)c1ccoc1C,"inconclusive [inhibitor, single point]"
17,NNC(=O)c1ccc(CSc2nc3ccccc3s2)cc1,active: 3.55 µM
18,COC(=O)c1c(NC(=O)Cn2nc(C(F)F)cc2C(F)F)sc(C)c1C,active: 11.2 µM
19,Cc1nc2cc(-c3ccccc3)nn2c(C)c1CCC(=O)NC(C)c1ccc2c(c1)OCCO2 (centres undefined),"inconclusive [inhibitor, single point]"
20,C/C(=N\Nc1cccc(Cl)c1)c1ccncc1,inactive
21,CCOC(=O)c1c[nH]n(-c2ccc(C)cc2)c1=O,"inconclusive [inhibitor, single point]"
22,Cn1cccc1C(C#N)c1cccc(F)c1C#N (centres undefined),active: 25.1 µM
23,Clc1ccc(CSc2nnc(-c3ccccn3)n2Cc2ccco2)c(Cl)c1,"inconclusive [inhibitor, single point]"
24,CCc1ccc(-c2cn(-c3nc(C)cc(C)n3)c(=N)o2)cc1,"inconclusive [inhibitor, single point]"
25,COc1ccccc1NC(=O)C1=C(C)Nc2ncnn2C1c1cccs1 (centres undefined),inactive

row,SMILES,Potency
1,CCOC(=O)c1cnc(-n2nc(C)cc2C)nc1Nc1ccccc1OC,inactive
2,COCCCNS(=O)(=O)c1ccc2c(c1)OCCO2,inactive
3,O=C(c1cc(COc2ccc(F)cc2Cl)on1)N1CCc2ccccc2C1,"inconclusive [inhibitor, single point]"
4,CCOC(=O)c1sc2nc(CC(=O)OC)nc(N3CCN(c4ccccn4)CC3)c2c1C,"inconclusive [inhibitor, single point]"
5,Cc1ccc2cc(C(c3nnnn3C3CCCC3)N(Cc3cccnc3)Cc3ccco3)c(=O)[nH]c2c1 (centres undefined),"inconclusive [inhibitor, partial curve]"
6,O=C(Cc1csc(NC(=O)c2ccc(F)cc2)n1)NO,inactive
7,C=C(C)CNC(=S)N/N=C/C1=CCC2CC1C2(C)C (centres undefined),inactive
8,C=C(C)C(=O)OCC(=O)NCc1ccccc1,inactive
9,C/C(CC(=O)NCc1ccco1)=N\NC(=O)C(c1ccccc1)c1ccccc1,"inconclusive [inhibitor, single point]"
10,CSc1nc(O)c(C(c2cccc([N+](=O)[O-])c2)c2c(O)nc(SC)[nH]c2=O)c(=O)[nH]1,inactive
11,Cc1cccn2c(=O)c3cc(S(=O)(=O)c4ccccc4)c(=N)n(Cc4ccco4)c3nc12,"inconclusive [inhibitor, partial curve]"
12,COc1ccc2ncc(OC(C)=O)cc2c1,"inconclusive [inhibitor, single point]"
13,O=S(=O)(c1cccs1)N1CCN(CC(O)COc2cc(Cl)ccc2Cl)CC1 (centres undefined),"inconclusive [inhibitor, partial curve]"
14,CCn1cc(Cl)c(C(=O)Nc2nc3ccccc3n2CCN2CCCCC2)n1,inactive
15,COc1ccc(/C=C2/CCc3ccccc3C2=O)cc1OC,inactive
16,CCOc1ccc(CNc2ccc(N3CCOCC3)c(C(=O)O)c2)cc1,"inconclusive [inhibitor, single point]"
17,O=S(=O)(c1ccccc1)N1CCC[C@@]2(CCN(C(c3ccccc3)c3ccccc3)C2)C1,inactive
18,CCCCC(=O)Nc1ccc(NC(=S)NC(=O)CC(C)C)cc1OC,inactive
19,CCN1CCN(Cc2nc3c(c(=O)[nH]c(=O)n3C)n2Cc2ccccc2Cl)CC1,inactive
20,CCOc1cccc(-c2nnc3sc(-c4ccco4)nn23)c1,"inconclusive [inhibitor, single point]"
21,O=C(/C=C/c1cc([N+](=O)[O-])ccc1OC(F)F)NCc1ccc(F)cc1,"inconclusive [inhibitor, full curve]"
22,Cc1ccc(OCC(=O)Nc2cccc(S(=O)(=O)N3CCCCCC3)c2)c([N+](=O)[O-])n1,"inconclusive [inhibitor, single point]"
23,Cc1nc2c(c(=O)n1CCC1=CCCCC1)c1nc3ccccc3nc1n2/N=C/c1ccco1,"inconclusive [inhibitor, partial curve]"
24,CC(=O)c1cc(-c2ccccc2)[nH]c1N1CCCC1,"inconclusive [inhibitor, single point]"
